Assay results from the BET-seq Pho4 binding data (Le et al. 2018).
The other results are listed elsewhere or left out. The energies were worked out here from pooled read counts, against the library average; single values are noisy.

What follows are sequences tested against T1, Pho4 (S. cerevisiae) (UniProt P07270) (assay: relative binding free energy (BET-seq); higher = weaker binding). Settings: reference: library average.
T1 sequence: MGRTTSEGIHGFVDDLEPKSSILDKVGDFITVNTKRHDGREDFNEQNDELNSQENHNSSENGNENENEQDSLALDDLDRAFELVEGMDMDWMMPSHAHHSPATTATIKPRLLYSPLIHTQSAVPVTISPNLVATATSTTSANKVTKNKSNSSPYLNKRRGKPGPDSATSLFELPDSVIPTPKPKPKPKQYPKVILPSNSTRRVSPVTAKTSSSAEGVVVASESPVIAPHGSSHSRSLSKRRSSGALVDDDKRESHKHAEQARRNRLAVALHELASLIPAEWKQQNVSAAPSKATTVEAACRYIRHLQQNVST

| Sequence | relative binding free energy |
| --- | --- |
| AGGGACACGTGTGGAA | 0.16 kcal/mol |
| TTTTGCACGTGCTTTG | -0.03 kcal/mol |
| GACATCACGTGGGTTG | 0.06 kcal/mol |
| TAGATCACGTGTGGTT | 0.31 kcal/mol |
| AGTTGCACGTGTCTGG | 0.02 kcal/mol |
| TTCTACACGTGTTAGT | 0.16 kcal/mol |
| TAAATCACGTGAGTGT | 0.21 kcal/mol |
| GAGGTCACGTGCGGTA | 0.12 kcal/mol |
| GGAATCACGTGTGGCT | 0.03 kcal/mol |
| CTTATCACGTGATATT | 0.2 kcal/mol |
| TATGTCACGTGACGAG | 0.11 kcal/mol |
| AATGACACGTGTGTAA | -0.01 kcal/mol |
| TTAGTCACGTGGTAAT | 0.07 kcal/mol |
| GGCATCACGTGTTTAT | 0.23 kcal/mol |
| TTTGGCACGTGATGTG | 0 kcal/mol |
| TAGGACACGTGTGGCG | 0.08 kcal/mol |
| CTGGTCACGTGTAGGT | 0.09 kcal/mol |
| GATGGCACGTGTGAGA | -0.06 kcal/mol |
| GGGTACACGTGTAGGG | 0.11 kcal/mol |
| TAGCTCACGTGGGGTT | 0.04 kcal/mol |
| TTGTTCACGTGATACG | 0.28 kcal/mol |
| ATAGTCACGTGCTGGA | -0.01 kcal/mol |
| TATGTCACGTGGATCA | 0.09 kcal/mol |

| Sequence | relative binding free energy |
| --- | --- |
| GGATGCACGTGATAAG | 0.17 kcal/mol |
| GGAGCCACGTGTGTTA | 0.04 kcal/mol |
| TGTATCACGTGTGCGC | 0.21 kcal/mol |
| AATGTCACGTGGTTTG | 0.06 kcal/mol |
| CAATGCACGTGGTAGT | -0.09 kcal/mol |
| CGGTTCACGTGGTAGA | 0.24 kcal/mol |
| TATGACACGTGTGATG | 0.12 kcal/mol |
| AGTTACACGTGGGATA | 0.13 kcal/mol |
| AAGTTCACGTGTTGTT | 0.36 kcal/mol |
| TGTTTCACGTGCTCAG | 0.18 kcal/mol |
| AAGGTCACGTGCGTGT | -0.14 kcal/mol |
| GATTGCACGTGTGAAT | 0.21 kcal/mol |
| TGTTTCACGTGAGTGC | 0.42 kcal/mol |
| TTAATCACGTGATGTT | 0.18 kcal/mol |
| TTTATCACGTGGGTTA | -0.04 kcal/mol |
| TGGGTCACGTGATTTT | 0.31 kcal/mol |
| AGTGACACGTGAAGGA | 0.22 kcal/mol |
| TTGTACACGTGTGGGC | 0.12 kcal/mol |
| TATCTCACGTGGGGTT | 0.14 kcal/mol |
| TGAAGCACGTGCTGGT | -0.2 kcal/mol |
| ACGGGCACGTGTTGAG | -0.11 kcal/mol |
| GTGGTCACGTGTCGGA | 0.31 kcal/mol |
| AGAGGCACGTGGTTGT | -0.17 kcal/mol |

| Sequence | relative binding free energy |
| --- | --- |
| GTCAGCACGTGTGGGA | 0.03 kcal/mol |
| TTAGGCACGTGTATAA | -0.1 kcal/mol |
| GGTTTCACGTGTACTT | 0.28 kcal/mol |
| GTGGTCACGTGGTTAT | 0.15 kcal/mol |
| GTGCGCACGTGTACTG | 0.02 kcal/mol |
| TTGAACACGTGGGTTG | 0.08 kcal/mol |
| TGCGACACGTGGGTTG | -0.15 kcal/mol |
| TAAATCACGTGGCAGG | 0.03 kcal/mol |
| TGTTGCACGTGGTACC | -0.06 kcal/mol |
| ATTATCACGTGAAGTA | 0.3 kcal/mol |
| TTAATCACGTGATAAT | 0.24 kcal/mol |
| TTTTACACGTGAATTA | 0.31 kcal/mol |
| TTTTGCACGTGCATCG | 0.02 kcal/mol |
| TGGTGCACGTGCGGCA | -0.03 kcal/mol |
| GCTGTCACGTGTTATG | 0.05 kcal/mol |
| ATCTTCACGTGGGGGC | 0.05 kcal/mol |
| GTATTCACGTGTCTTG | 0.31 kcal/mol |
| AAGGTCACGTGATAGG | 0.3 kcal/mol |
| CTTAGCACGTGTGAGT | -0.06 kcal/mol |
| CGGGCCACGTGCTGGG | -0.14 kcal/mol |
| ACATGCACGTGGTTGG | -0.25 kcal/mol |
| TAGCACACGTGAGGTG | 0.26 kcal/mol |
| GTTTGCACGTGGAAGT | 0.06 kcal/mol |

| Sequence | relative binding free energy |
| --- | --- |
| AAATACACGTGGTCGG | 0.16 kcal/mol |
| CTTTTCACGTGGGGCA | 0.13 kcal/mol |
| GATGTCACGTGGTAGC | 0.21 kcal/mol |
| TTTTCCACGTGTTTGC | 0.04 kcal/mol |
| AAGGCCACGTGTGTAG | 0.06 kcal/mol |
| GGCGGCACGTGGGGTG | -0.18 kcal/mol |
| TTATGCACGTGATCAT | 0 kcal/mol |
| ATAAACACGTGGGTGT | -0.17 kcal/mol |
| TGTGACACGTGGAAGT | -0.04 kcal/mol |
| AATAGCACGTGGTTGC | -0.14 kcal/mol |
| GTGCCCACGTGGTGTA | -0.09 kcal/mol |
| TTGAACACGTGGGTCT | -0.06 kcal/mol |
| TGGGTCACGTGTAATT | 0.36 kcal/mol |
| TGCTGCACGTGCGTAG | -0.06 kcal/mol |
| CGTTTCACGTGGAGCA | 0.4 kcal/mol |
| TGGATCACGTGGGAGC | 0.04 kcal/mol |
| GGTACCACGTGTTGGT | 0.05 kcal/mol |
| AAAAGCACGTGTGAGT | -0.01 kcal/mol |
| TGTGCCACGTGGTATT | -0.14 kcal/mol |
| CAAAGCACGTGTGTAG | 0.07 kcal/mol |
| TGATACACGTGTTCGG | -0.1 kcal/mol |
| TTTGTCACGTGTATAT | 0.17 kcal/mol |
| TTCCTCACGTGGGTTA | 0.06 kcal/mol |

| Sequence | relative binding free energy |
| --- | --- |
| ATAGTCACGTGTGTGA | 0.01 kcal/mol |
| ATATTCACGTGGTCAG | 0.1 kcal/mol |
| TTAGGCACGTGCGTCG | -0.17 kcal/mol |
| CGGCGCACGTGTGAGT | -0.09 kcal/mol |
| TCGGGCACGTGTGTAG | 0.05 kcal/mol |
| GGTGTCACGTGTTCAA | 0.12 kcal/mol |
| GGGACCACGTGTGGAG | 0.09 kcal/mol |
| TGGAGCACGTGTTAAA | -0.01 kcal/mol |
| ATGAGCACGTGAGGCG | 0.12 kcal/mol |
| AACGGCACGTGAGTGG | -0.01 kcal/mol |
| GTCGGCACGTGGTTCG | 0.09 kcal/mol |
| TAGGACACGTGATTGC | 0.24 kcal/mol |
| CATATCACGTGGGTTG | 0.02 kcal/mol |
| ATGCGCACGTGGTATG | -0.17 kcal/mol |
| TCTTTCACGTGGGTAT | 0.21 kcal/mol |
| GTGTGCACGTGTAAAG | 0.08 kcal/mol |
| GTCAGCACGTGGGGCG | -0.09 kcal/mol |
| TATAACACGTGCGGGT | -0.11 kcal/mol |
| TGCGGCACGTGCTTTG | -0.08 kcal/mol |
| CTGGTCACGTGGTTAG | 0.14 kcal/mol |
| ATCGGCACGTGCAGGT | -0.05 kcal/mol |
| ATAAGCACGTGGGGCT | -0.26 kcal/mol |
| CGTTGCACGTGCTTGA | 0.06 kcal/mol |
